Read counts are not given, so values of variants with three or more changes are uncertain.

Self-cleavage data for 167 variants are collected here from the RNAGym collection of RNA variant scans (doi:10.7554/elife.90254).

First the molecules themselves.
B1: LINE1-full (parent)
chain: UACGUAGGUGGUUUUCCCCUGAUAGUGCUAAGGGGGCCUGGAAGUUUGGACUGGGCAGAGCUCAACACAGCGUGGCAAAGUGGCUGUGGCUAGACUGCCUCUCUGGAUUCCUCGUCACUCAGCAGGGCAUCUCUGAGAGAAAUGCC

In the data set the parent is B1. As to the kind of experiment: self-cleavage, relative activity (ratio to wild type); higher = more cleavage; in vitro, sequencing; the parent is a self-cleaving ribozyme.
As for U9C A79G A124G U143C, the self-cleavage stood at 0.

For the variant U9A A43G U45C U47A G48A U52A A94U A107G A136G, the self-cleavage was 0.

Consider U9C A30G U62A C116U U119C, for which the self-cleavage is 0.

For the variant U9A U73C U87C, the self-cleavage came out at 0.

As to G8A U47C U130C, the self-cleavage is 1.35.

Regarding U9A U47A U100C A141G, the self-cleavage worked out at 1.4.

In the case of U9C A124U U143A, the self-cleavage was 1.41.

With U9C A124U A138G, the self-cleavage was determined as 1.33.

Take U9A U46C U112C: the self-cleavage was 1.48.

Turning to U9A G11A A42G, the self-cleavage stood at 2.35.

In the case of U9C A31G A94G U143A, the self-cleavage stood at 0.

Consider G8C U9C G35U A65U U104C, for which the self-cleavage stood at 0.77.

As for G8U U13C U85C, the self-cleavage is 0.1.

Turning to U9C A59U A141G, the self-cleavage is 0.56.

Take U9C U12C U96C: the self-cleavage amounted to 0.21.

For the variant U9A U91C U96C, the self-cleavage amounted to 0.29.

Turning to U9C G74A A141G, the self-cleavage worked out at 0.58.

As for U9A G25A A92G U115G, the self-cleavage came out at 0.

As to U9C A117G U134C, the self-cleavage came out at 1.25.

For the variant U9A U12G A79G, the self-cleavage was 0.52.

Take U9A U96C U108C: the self-cleavage was determined as 0.21.

For U9C A107G A138G, the self-cleavage was found to be 1.06.

As to U9A C17U U102A U115C A117G, the self-cleavage was found to be 1.15.

As to U9A U62C U81C, the self-cleavage came out at 0.14.

U9A U12C A57C A94G: the self-cleavage was found to be 0.

Consider U9A U85A A140G, for which the self-cleavage was determined as 0.11.

For the variant G7U A77G U104A, the self-cleavage worked out at 1.62.

For U9A U62C U108C, the self-cleavage is 0.

Consider U9C A79U U119A A140G, for which the self-cleavage stood at 0.37.

For U9A A78G A107G U143C, the self-cleavage came to 0.

As for U9A U13C A42G A78U A124U A142U, the self-cleavage turned out to be 1.19.

Consider U9C A69U C128A, for which the self-cleavage was found to be 0.02.

Regarding U9C A78G A124C G135U, the self-cleavage worked out at 1.02.

For the variant G7C U62A U102C U109A, the self-cleavage was 1.84.

As to U9A A57G U109C U130C, the self-cleavage stood at 1.15.

As to U9C A57G U62C A64G A79G U87A, the self-cleavage amounted to 0.

As for G8C G53A U62C, the self-cleavage came out at 0.11.

For the variant U9A U39C G40U A77G A94G, the self-cleavage came out at 0.

Regarding U9A U26C U104A A142U, the self-cleavage is 1.01.

In the case of U9A G72A A140G, the self-cleavage was determined as 0.77.

In the case of U9C G58A C113A U130C U143C, the self-cleavage came out at 0.09.

With U9A U47C G126U, the self-cleavage was 0.82.

U9A G74A U109A A138U: the self-cleavage came out at 1.8.

With G8A G135A A138G, the self-cleavage was determined as 1.67.

Take U9A U13C A140U: the self-cleavage was 0.58.

With U9C C28G U96C U115A U130C, the self-cleavage worked out at 0.

With U9C C123U U130G, the self-cleavage was found to be 1.6.

As for U9C A79G U115C U132C, the self-cleavage is 1.47.

G8U A43G U130C: the self-cleavage is 1.96.

On to U9A U108C U143C, for which the self-cleavage worked out at 2.16.

Turning to U9A U62C A64U, the self-cleavage was found to be 0.07.

In the case of U9A U12C A43G A64U, the self-cleavage came out at 0.51.

Turning to U9C U12C A129C, the self-cleavage stood at 1.28.

In the case of U9A A65G A142G, the self-cleavage was 0.

Take U9A U47C A140C A141G: the self-cleavage worked out at 1.45.

Regarding U9C C19U U52C U62C U134C, the self-cleavage worked out at 0.

U9A U52A U87C C103A G144A: the self-cleavage worked out at 0.31.

Turning to U9C A64G A94U, the self-cleavage is 0.29.

As to U9C U12C U73A, the self-cleavage was 1.99.

For U9C U13A A138G, the self-cleavage is 0.69.

Regarding U9A A77U U115A C123G, the self-cleavage worked out at 2.14.

G7U G11U U87C: the self-cleavage was 0.09.

U9A U20G U52C: the self-cleavage worked out at 0.28.

Turning to G7U U15C U85A, the self-cleavage stood at 0.16.

In the case of U9A U13C A64C G127A U143A, the self-cleavage worked out at 0.38.

Turning to G8A A59U A121U, the self-cleavage was 0.85.

In the case of G7A U45C A77G G105A A142G, the self-cleavage was determined as 2.17.

On to U9C A31U A107G, for which the self-cleavage was 2.35.

Turning to U9A U100G U119A A124G, the self-cleavage was determined as 1.84.

Take U9A U62C A67U U108C A141G: the self-cleavage amounted to 0.

Turning to U9C U12C A31G U73A, the self-cleavage is 1.23.

Take G8A A69G U115A A129G: the self-cleavage was 0.33.

Take G8C U73A A78G A141G: the self-cleavage came out at 0.34.

Consider U9A U15C A136U, for which the self-cleavage is 1.58.

U9A A107G A121G A140G: the self-cleavage was found to be 0.61.

With U9A U12C G44A G60C, the self-cleavage came to 0.22.

Turning to U9C G35C U39C A69U A94G U115A, the self-cleavage turned out to be 0.48.

For the variant U9A U15C A24G A64U G88U U96C, the self-cleavage was determined as 0.18.

G8U U46A U119C: the self-cleavage was found to be 1.71.

As to U9C A31U U115A U119C, the self-cleavage is 0.32.

G8A A43G U96C: the self-cleavage came to 0.

For G7A U87A U96C, the self-cleavage turned out to be 0.11.

As for U9A U12C G53A U130C, the self-cleavage amounted to 0.39.

U9C C16U U47C U108C: the self-cleavage was determined as 1.15.

In the case of U9A A43U U47A A65C U104C A141G, the self-cleavage turned out to be 0.02.

Regarding U9C A64G A94U A136U, the self-cleavage stood at 0.4.

With U9C A22G A64U A94C, the self-cleavage came to 0.

As to G8C U112C A138C, the self-cleavage worked out at 1.99.

For the variant U9A U20G A43G C120U, the self-cleavage stood at 0.96.

U9A C66U G86A: the self-cleavage was 0.05.

For the variant U9C A78C G125A U130C A141G, the self-cleavage came out at 1.82.

U9A U62A A107U: the self-cleavage amounted to 0.05.

As to U9C U13C A57G G75A G125U, the self-cleavage came to 0.23.

U9A A67U G72A A136U: the self-cleavage came out at 0.11.

As for U9A U39C U87A A124G, the self-cleavage worked out at 0.

With U9C C68U A107G A136G A141G, the self-cleavage was found to be 0.51.

Take U9A U23C A57G: the self-cleavage was 0.92.

U9A U26C A78G U119C: the self-cleavage was determined as 2.

U9C A59G A64U C145G: the self-cleavage amounted to 0.56.

As for U9C G36A C95A U102C, the self-cleavage is 0.07.

Turning to U9A U85C C120U G122U, the self-cleavage was determined as 0.17.

As to U9C A64G U104C A140G A142G, the self-cleavage was 0.

G7A U130C A142G: the self-cleavage was 0.

Consider U9A U12C U15A C84U U91C G105A, for which the self-cleavage is 0.26.

As for U9C C76U A121U, the self-cleavage came to 2.6.

As to G8A U9A U26A A30G U52C G114U, the self-cleavage is 0.57.

As to U9A U12C C66U G126A, the self-cleavage came out at 0.04.

With U9A G36A A94G, the self-cleavage was determined as 0.05.

Consider G8C C71U U102A U104C, for which the self-cleavage amounted to 1.24.

For U9A A31U U134C, the self-cleavage stood at 1.02.

G8A U15C C51A U96A: the self-cleavage is 0.15.

For U9C A59U A69G A142G, the self-cleavage was found to be 0.5.

Take U9C A42G U46C C84G: the self-cleavage amounted to 0.36.

U9C A24G G125A: the self-cleavage stood at 0.65.

For the variant G8A U14C U85A, the self-cleavage was found to be 0.17.

As to U9C U12C U119C, the self-cleavage worked out at 1.31.

For G8U U20A U26C A43G A79G A142G C145A, the self-cleavage was 2.12.

Regarding G8A U45C U73C, the self-cleavage stood at 1.45.

Consider G8U U62A U108C, for which the self-cleavage is 0.03.

As to U9A U12A U46C A67G A94U, the self-cleavage was 0.48.

Take G7U A42G U100C U130C: the self-cleavage was found to be 2.4.

Take U9A U26C U143A: the self-cleavage turned out to be 0.81.

Regarding G7U A69U C118A, the self-cleavage is 0.04.

Consider G7U A65U G86U U87C A141G, for which the self-cleavage amounted to 0.04.

As to U9A U14A U26C A121G A136G, the self-cleavage amounted to 0.

Regarding G7U U9C A124G, the self-cleavage came to 1.31.

Regarding U9A C19U U130A U143A, the self-cleavage was determined as 0.83.

As to U9A C37U U81C U115C, the self-cleavage came out at 1.7.

Take U9C A59G A140U: the self-cleavage is 0.21.

For U9C U13A U52A A57G U85A A129G, the self-cleavage was determined as 0.44.

Take U9C G21A U81C U91C C95U: the self-cleavage was 0.16.

For the variant G8U A43G A138G, the self-cleavage amounted to 1.23.

For U9A A43G U130A, the self-cleavage was 0.59.

On to U9A U45C U96C A140G, for which the self-cleavage came to 0.24.

On to U9A A79G U109C, for which the self-cleavage was determined as 0.9.

For U9C A42G U47C G55U A64G A78G, the self-cleavage came out at 0.

U9A U15C U62C G89A A136G A138G: the self-cleavage was 0.

As for U9C A121G A138U, the self-cleavage stood at 0.44.

With G8A U81C A94G, the self-cleavage was determined as 1.06.

Take G7C U45C A141G: the self-cleavage came to 1.74.

For the variant U9A U62C A121G G144A, the self-cleavage was determined as 0.

With U9C A31C A141G, the self-cleavage came to 0.26.

For U9C A57U A69U C103A, the self-cleavage came out at 0.09.

Consider U9A U12G U100C, for which the self-cleavage amounted to 1.08.

On to U9C C19U U96C, for which the self-cleavage came out at 0.

On to G8U U46C A92U A124G, for which the self-cleavage is 1.69.

With G8A C68U U102C C123U U143A, the self-cleavage came out at 0.19.

In the case of U9A U39A G137A, the self-cleavage worked out at 1.09.

U9A U52A A78G A107G: the self-cleavage came out at 0.

Take U9C A31G A64G U115C A141G: the self-cleavage stood at 1.02.

For the variant U9A U14C U119C, the self-cleavage is 0.89.

In the case of U9A U109C U115A, the self-cleavage turned out to be 0.96.

Take G8U U20A A31U U62A A65G U81A A107G: the self-cleavage was 0.17.

As to U9A U12G U13C G25A U47A, the self-cleavage turned out to be 0.

For U9A G125A A142G, the self-cleavage worked out at 1.4.

Turning to U9C A79G U119C, the self-cleavage worked out at 1.47.

Regarding U9A G35A A42U U45G A92G A121C, the self-cleavage was 0.

With U9C G32A G33C A79G U119C A124G, the self-cleavage came out at 0.

For U9A U12G U39C U45C A59G A67U G83A, the self-cleavage worked out at 0.52.

In the case of U9A G44A A138G, the self-cleavage amounted to 0.33.

Take U9A A69C G72A U73C U100C: the self-cleavage is 0.

Regarding U9A U73A A141G, the self-cleavage was determined as 1.61.

G8A U15C U20C A59G U96A U108C: the self-cleavage was 0.

Regarding G7U A31G U45A, the self-cleavage stood at 1.28.

With G7U U104C A107G A124C, the self-cleavage was determined as 1.53.

For U9A A42G U109G, the self-cleavage was found to be 0.6.

In the case of U9C A129G U143C, the self-cleavage worked out at 0.88.
